The campaign covered roughly 310,000 compounds. About 14,000 (4.5%) showed an effect of 50% or more. The effect is printed as a negative number. This is one part of the list.
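Further: peak tail current of the secondary pulse compared with the same well before compound.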

The target in the assay is human ether-à-go-go-related gene (hERG) potassium channel (human, UniProt Q12809). Kind of assay: primary screen, population patch clamp on CHO cells stably expressing hERG.
Sequence of human ether-à-go-go-related gene (hERG) potassium channel (Q12809 whole entry, looked up): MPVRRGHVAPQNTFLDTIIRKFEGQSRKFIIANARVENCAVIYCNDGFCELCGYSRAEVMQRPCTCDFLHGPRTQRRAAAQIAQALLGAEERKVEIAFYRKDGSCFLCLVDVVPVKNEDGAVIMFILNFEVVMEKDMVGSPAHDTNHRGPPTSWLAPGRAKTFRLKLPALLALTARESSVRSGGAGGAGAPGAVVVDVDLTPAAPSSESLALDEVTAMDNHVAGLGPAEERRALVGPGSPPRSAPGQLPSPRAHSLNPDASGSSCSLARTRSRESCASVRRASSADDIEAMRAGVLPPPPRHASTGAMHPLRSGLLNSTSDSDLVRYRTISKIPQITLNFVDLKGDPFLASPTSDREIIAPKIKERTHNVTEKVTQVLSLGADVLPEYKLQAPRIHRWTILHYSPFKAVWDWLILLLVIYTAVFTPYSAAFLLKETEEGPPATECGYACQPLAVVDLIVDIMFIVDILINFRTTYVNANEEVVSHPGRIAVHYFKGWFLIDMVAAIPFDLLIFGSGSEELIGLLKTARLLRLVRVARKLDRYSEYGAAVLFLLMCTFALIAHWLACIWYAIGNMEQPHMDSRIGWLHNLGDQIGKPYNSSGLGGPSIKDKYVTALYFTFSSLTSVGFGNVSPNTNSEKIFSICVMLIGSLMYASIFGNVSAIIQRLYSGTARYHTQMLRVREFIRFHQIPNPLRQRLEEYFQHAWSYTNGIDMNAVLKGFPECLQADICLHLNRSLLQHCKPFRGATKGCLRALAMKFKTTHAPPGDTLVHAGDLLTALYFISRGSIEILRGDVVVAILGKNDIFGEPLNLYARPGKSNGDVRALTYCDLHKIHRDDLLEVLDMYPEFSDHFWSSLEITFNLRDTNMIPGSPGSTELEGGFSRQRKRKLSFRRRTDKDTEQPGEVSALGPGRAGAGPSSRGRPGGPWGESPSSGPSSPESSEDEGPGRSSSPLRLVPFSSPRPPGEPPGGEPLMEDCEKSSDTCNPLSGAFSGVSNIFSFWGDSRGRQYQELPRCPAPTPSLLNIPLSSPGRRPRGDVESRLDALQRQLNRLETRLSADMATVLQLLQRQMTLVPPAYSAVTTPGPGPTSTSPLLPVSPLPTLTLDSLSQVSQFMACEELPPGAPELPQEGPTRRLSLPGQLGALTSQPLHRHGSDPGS
In the case of `C/C(=N\NC(=O)c1cccnc1)c1ccc(Br)cc1`, the “hERG current change (%, negative = inhibition) at 10uM” value is listed as -11.1%.
In the case of `CC(C)CN(C(=O)CSc1nncn1C)C1CCS(=O)(=O)C1` (centres unmarked), the “hERG current change (%, negative = inhibition) at 10uM” value came out at 15%.
On to `CNC(=O)NC(=O)C(OC(=O)c1cccc(S(=O)(=O)N2CCCCC2)c1)c1ccccc1` (centres unmarked), for which the “hERG current change (%, negative = inhibition) at 10uM” value was -1.58%.
For the compound `Cc1cccc(C)c1OCC(O)CN1CCN(c2ccccn2)CC1` (centres unmarked), the “hERG current change (%, negative = inhibition) at 10uM” value is recorded as -35.5%.
`COc1ccc(N2C(=O)CC(NCc3cccc(F)c3)C2=O)cc1` (centres unmarked): the “hERG current change (%, negative = inhibition) at 10uM” value was -13.3%.
As for `COc1ccccc1C(=O)NCC(=O)OCC(=O)Nc1cccc(S(=O)(=O)N2CCCCCC2)c1`, the “hERG current change (%, negative = inhibition) at 10uM” value is -16.9%.
Turning to `CC1=C(C(=O)N(C)C)C(c2cccc(Cl)c2)NC(=O)N1` (centres unmarked), the “hERG current change (%, negative = inhibition) at 10uM” value came out at 2.6%.
`COc1ccc(C[C@@H]2CN3C(=NC[C@@H]3C)N2C[C@H](C)NC(=O)c2ccc(C)c(Br)c2)cc1`: the “hERG current change (%, negative = inhibition) at 10uM” value is on record as -74.8%.
On to `COc1ccccc1N(CC(=O)NC1CCCC1)C(=O)c1csnn1`, for which the “hERG current change (%, negative = inhibition) at 10uM” value amounted to 4.43%.
Regarding `O=C(CN1C(=O)c2ccccc2C1=O)NCc1ccc(F)cc1`, the “hERG current change (%, negative = inhibition) at 10uM” value was found to be 24.3%.
For `Nc1ccc(Br)cc1C(=O)O`, the “hERG current change (%, negative = inhibition) at 10uM” value was -8.28%.
Then `Cl.O=C(O)/C=C/c1ccc(Cn2ccnc2)cc1`, with -9.79%.
On to `COC(=O)CNC(=O)CSc1nc2sc(-c3ccccc3)cc2c(=O)n1-c1ccccc1`, for which the “hERG current change (%, negative = inhibition) at 10uM” value was 0.814%.
Then `O=C1C=C(NCc2ccc(Cl)c(Cl)c2)C2(CCCCC2)O1`, with 16.4%.
The same measure for `Cc1ccc(NC(=O)CSc2nc(CSc3ccc(C)cc3)cc(=O)[nH]2)cc1`: 9.15%; for `O=C(Nc1ccccc1C(=O)N1CCCC1)c1cccc(S(=O)(=O)N2CCCCCC2)c1`: -39.3%; for `Cc1ccc(Nc2nc(NCC3CCCO3)nc(N)c2[N+](=O)[O-])cc1` (centres unmarked): 19.6%.
On to `Cc1cc2cc(CN3C(=O)c4ccccc4C3=O)ccc2[nH]1`, for which the “hERG current change (%, negative = inhibition) at 10uM” value is listed as 11.2%.
For `Cc1ccc(/C=C/C(=O)N2CCC(Cc3ccccc3)CC2)cc1`, the “hERG current change (%, negative = inhibition) at 10uM” value was 17.9%.
As to `Cc1cc(C(=O)N2CC=C(c3ccccc3)CC2)c2ccccc2n1`, the “hERG current change (%, negative = inhibition) at 10uM” value is reported as -52.9%.
Consider `CCn1ccc(C(=O)Nc2ccccc2SC)n1`, for which the “hERG current change (%, negative = inhibition) at 10uM” value is listed as -37.9%.
The same measure for `COc1ccc(NC2CS(=O)(=O)CC2OC(=O)c2ccc(F)cc2)cc1` (centres unmarked): 3.68%; for `O=C(Nc1ccccc1)OCN1C(=O)c2ccccc2C1=O`: -15.7%; for `CC(=O)N1N=C(c2ccc(C(C)(C)C)cc2)OC1(C)C`: 1.81%.
Turning to `C=CCOC(=O)C1=C(C)NC(=O)NC1/C=C/c1ccccc1OC` (centres unmarked), the “hERG current change (%, negative = inhibition) at 10uM” value turned out to be 15.2%.
Then `Cc1ccc(Cc2c[nH]c(=S)s2)cc1`, with 16.6%; and `CCCc1n[nH]c(=O)c2c1nnn2Cc1ccccc1`, with 4.86%.
Turning to `O=C(c1ccc(Cl)cc1Cl)N1CCc2ccccc21`, the “hERG current change (%, negative = inhibition) at 10uM” value is -1.6%.
As for `CC(C)n1cnc2c(NCc3ccccc3)nc(NCc3ccccc3)nc21`, the “hERG current change (%, negative = inhibition) at 10uM” value is reported as 0.281%.
Consider `Cc1cccc(NC(=O)COc2ccc(Br)cc2/C=N/O)c1`, for which the “hERG current change (%, negative = inhibition) at 10uM” value came to 8.31%.
As to `CCOC(=O)c1[nH]c2ccc(OC)cc2c1NC(=O)N1CCOCC1`, the “hERG current change (%, negative = inhibition) at 10uM” value turned out to be 12.9%.
For `COc1ccc(NC(=S)Nc2ccc(F)cc2)cc1`, the “hERG current change (%, negative = inhibition) at 10uM” value worked out at 16.2%.
As for `CSCC[C@H](NC(=O)[C@H](Cc1ccccc1)n1c(=O)[nH]c2ccccc2c1=O)C(=O)N1CCC[C@H]1C(=O)O`, the “hERG current change (%, negative = inhibition) at 10uM” value is -1.94%.
The same measure for `O=C(NC(=S)N1CCN(c2ccc(F)cc2)CC1)C12CC3CC(CC(C3)C1)C2`: 1.26%.
On to `O=C(CNC(=O)c1ccccc1F)N/N=C/c1ccc2c(c1)OCO2`, for which the “hERG current change (%, negative = inhibition) at 10uM” value is listed as 15.6%.
As to `CCOC(=O)c1c(C)nc2c(c1-c1cc(OC)ccc1OC)C(=O)CC(C)(C)C2`, the “hERG current change (%, negative = inhibition) at 10uM” value worked out at 8.68%.
On to `CCOc1cc(/C=N/Nc2cc(C)nc3ccc(C)cc23)ccc1O`, for which the “hERG current change (%, negative = inhibition) at 10uM” value was 11.1%.
On to `Clc1ccc(-c2nnc(CSc3nnc(-c4cccs4)n3Cc3ccccc3)o2)cc1`, for which the “hERG current change (%, negative = inhibition) at 10uM” value is -47.4%.
For the compound `COc1ccc(NC(=O)CN(C)C(=O)c2ccc(-c3ccccc3Cl)o2)cc1`, the “hERG current change (%, negative = inhibition) at 10uM” value was -5.15%.
For `CC(C)c1ccc(/C=N/NC(=O)CC(=O)NCc2ccccc2)cc1`, the “hERG current change (%, negative = inhibition) at 10uM” value came out at 23.2%.
`Cl.NCC(O)CN1CCN(Cc2ccccc2)CC1` (centres unmarked): the “hERG current change (%, negative = inhibition) at 10uM” value stood at 11%.
Then `Cc1ccc(N2CCN(C(=O)NC3CCCCC3)CC2)c(C)c1`, with 12%; and `O=C(CN1CCN(S(=O)(=O)c2ccccc2)CC1)NC(=O)NCc1ccccc1`, with 12.7%.
As for `CC1(C)CC(Cc2nc(=S)[nH][nH]2)C(=O)O1` (centres unmarked), the “hERG current change (%, negative = inhibition) at 10uM” value is on record as 20%.
For the compound `COCCn1c(=O)[nH]c(=O)c2c1nc(-c1cc(Br)c3c(c1)OCO3)n2Cc1ccccc1`, the “hERG current change (%, negative = inhibition) at 10uM” value is listed as 0.333%.
With `O=C(Nc1ccc(-c2nc3ccc(NC(=O)c4cccs4)cc3[nH]2)cc1)c1cccs1`, the “hERG current change (%, negative = inhibition) at 10uM” value turned out to be 18.1%.
With `O=C(CCc1nnc(CCc2ccccc2)o1)N1CCCC1c1nccs1` (centres unmarked), the “hERG current change (%, negative = inhibition) at 10uM” value was 5.12%.
On to `Cc1ccc(Cl)cc1N1CCN(S(=O)(=O)c2c(C)nc3scc(C)n3c2=O)CC1`, for which the “hERG current change (%, negative = inhibition) at 10uM” value is listed as 17.8%.
Consider `Cc1ccc2ncnc(NCCC(=O)O)c2c1.Cl`, for which the “hERG current change (%, negative = inhibition) at 10uM” value was 2.72%.
For the compound `c1ccc(Cn2nnnc2CN2CCN(Cc3ccc4c(c3)OCO4)CC2)cc1`, the “hERG current change (%, negative = inhibition) at 10uM” value is given as -61.1%.
On to `CC(C)(C)N1C(=O)[C@H]2[C@@H](c3ccc(Br)cc3)N3C(=O)N(c4cccc(Cl)c4)C(=O)[C@@]3(Cc3ccccc3)[C@H]2C1=O`, for which the “hERG current change (%, negative = inhibition) at 10uM” value was 23.4%.
`CCOC(=O)C1=C(C)NC(=S)NC1c1ccc(-c2cccc(Cl)c2C)o1` (centres unmarked): the “hERG current change (%, negative = inhibition) at 10uM” value was found to be 14.4%.
Then `COc1ccc(CNC(=O)CCS(=O)(=O)c2ccc3c(c2)CC(C)N3C(=O)C2CC2)cc1` (centres unmarked), with 11.4%.
Take `COc1ccc(/C=C/C(=O)NNC(=O)c2cc(C)oc2C)cc1`: the “hERG current change (%, negative = inhibition) at 10uM” value came out at 5.04%.
Take `O=C(NC1CCS(=O)(=O)C1)c1cccc(S(=O)(=O)N2CCCCC2)c1` (centres unmarked): the “hERG current change (%, negative = inhibition) at 10uM” value is 4.21%.
On to `Cc1nc(CSc2ccc(Cl)cc2)cc(N2CCOCC2)n1`, for which the “hERG current change (%, negative = inhibition) at 10uM” value is reported as -16.8%.
As for `Cc1ccc(C(=O)Nc2ccc(Nc3ccccc3)cc2)c(Cl)c1`, the “hERG current change (%, negative = inhibition) at 10uM” value amounted to 20.7%.
Consider `COc1ccc(Cl)cc1NC(=S)N(Cc1cccnc1)Cc1ccco1`, for which the “hERG current change (%, negative = inhibition) at 10uM” value is -73.8%.
In the case of `NC(=O)c1cc2cc(Br)ccc2o/c1=N/NC(=O)c1cccc(F)c1`, the “hERG current change (%, negative = inhibition) at 10uM” value is on record as 5.52%.
For `O=C(CCN=C1NS(=O)(=O)c2ccccc21)OCc1ccccc1`, the “hERG current change (%, negative = inhibition) at 10uM” value stood at 4.19%.
For the compound `Cc1cc(Cl)ccc1Oc1ccccc1C(=O)CC#N`, the “hERG current change (%, negative = inhibition) at 10uM” value is -27.4%.
Consider `COc1cccc(NC(=O)CCN2C(=O)c3ccccc3Sc3ncccc32)c1`, for which the “hERG current change (%, negative = inhibition) at 10uM” value stood at 12.7%.
The same measure for `O=C(Nc1nnc(-c2ccncc2)o1)c1ccccc1F`: 31.6%; for `Cc1cc(-c2nnc(SCC(=O)c3ccc4c(c3)OCCO4)o2)no1`: -0.243%; for `Cc1cccc(N2CC(C(=O)Nc3ccc4c(c3)OCO4)CC2=O)c1C` (centres unmarked): -22.2%.
As to `C=CCN1C(=O)/C(=C2/Sc3ccccc3N2CC)SC1=S`, the “hERG current change (%, negative = inhibition) at 10uM” value was found to be 15.5%.
The same measure for `COc1cc(CNCc2ccc(OC)c3ccccc23)cc(OC)c1OC.O=C(O)C(=O)O`: -20%; for `Cc1nn(-c2ccccc2)c(C)c1NC(=O)c1ccc(S(=O)(=O)N2CCCC2)cc1`: -10.5%.
`CC(C)c1ccc(NC(=S)Nc2cccc3ccccc23)cc1`: the “hERG current change (%, negative = inhibition) at 10uM” value was 12.3%.
The same measure for `COc1ccccc1N1C(=O)C2CCC(c3ccccc3)CC2C1=O` (centres unmarked): -3.05%.
As for `O=C(CCSc1ccc(Cl)cc1)N1CCN(S(=O)(=O)c2ccccc2)CC1`, the “hERG current change (%, negative = inhibition) at 10uM” value was -25.8%.
As for `COc1cc(/C=C/C(=O)O)cc(S(=O)(=O)Nc2ccccc2Oc2ccccc2)c1OC`, the “hERG current change (%, negative = inhibition) at 10uM” value is listed as -6.27%.
Turning to `Cn1c(N)c(C(=O)c2ccc(Oc3ccccc3)cc2)c(=O)n(C)c1=O`, the “hERG current change (%, negative = inhibition) at 10uM” value is -7.5%.
With `Cc1cccnc1NC(=O)c1ccc(S(=O)(=O)N2CCC(C)CC2)cc1`, the “hERG current change (%, negative = inhibition) at 10uM” value was -12.3%.
Then `[Br-].c1ccc(-c2c[n+]3c(n2-c2ccccc2)SCC3)cc1`, with -28.4%; and `Cc1nn(CCO)c2nc(-c3cccs3)cc(C(F)(F)F)c12`, with 2.32%.
Regarding `CN(Cc1cnn(C)c1)C(=O)C1CCC(=O)N(Cc2cccc(C(F)(F)F)c2)C1` (centres unmarked), the “hERG current change (%, negative = inhibition) at 10uM” value amounted to 6.88%.
Consider `O=C(CN(C(=O)c1nsc(Cl)c1Cl)c1ccc(F)cc1)NC1CCCC1`, for which the “hERG current change (%, negative = inhibition) at 10uM” value was -3.02%.
On to `O=C(COc1ccccc1/C=C1\SC(=O)NC1=O)Nc1ccccc1`, for which the “hERG current change (%, negative = inhibition) at 10uM” value amounted to 14.4%.
The same measure for `Oc1[nH]c2ccccc2c1N=Nc1c(F)c(F)c(C(F)(F)F)c(F)c1F`: 4.55%; for `Cc1ccc(-c2nnc(N3CCCCC3)c3ccccc23)cc1S(=O)(=O)N1CCN(C)CC1`: -58.7%; for `CC(C)(C)c1nn2cnnc2n(/N=C/c2cccc3ccccc23)c1=O`: -9.63%.
As to `CC(C)CN(C(=O)COC(=O)c1ccc(Cl)nc1)c1c(N)n(Cc2ccccc2)c(=O)[nH]c1=O`, the “hERG current change (%, negative = inhibition) at 10uM” value was found to be 21%.
Regarding `COc1ccc(C(=O)N2CCC(C(=O)Nc3ccccc3OC)CC2)cc1`, the “hERG current change (%, negative = inhibition) at 10uM” value is given as -34.6%.
With `COc1ccc(NC(=O)NS(=O)(=O)c2ccc(C)cc2)c(OC)c1`, the “hERG current change (%, negative = inhibition) at 10uM” value was 10.6%.
Regarding `O=C(NCCC1=CCCCC1)C1CCN(c2nnc(-n3cccc3)s2)CC1`, the “hERG current change (%, negative = inhibition) at 10uM” value is recorded as -24.7%.

(Values after publication PMC4336329 (PLoS ONE, 2015).)
